# From publication PMC4336329 (PLoS ONE, 2015)
# Hit rate of the full screen: of about 310,000 compounds, about 14,000 (4.5%) showed an effect of 50% or more. Effects have a minus sign here. The list shows a part of the results.
# Target: human ether-à-go-go-related gene (hERG) potassium channel (human, UniProt Q12809)
# Experiment: primary screen, population patch clamp on CHO cells stably expressing hERG
# 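Note: peak tail current of the secondary pulse compared with the same well before compound.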
# Chain of human ether-à-go-go-related gene (hERG) potassium channel (Q12809 whole entry, looked up): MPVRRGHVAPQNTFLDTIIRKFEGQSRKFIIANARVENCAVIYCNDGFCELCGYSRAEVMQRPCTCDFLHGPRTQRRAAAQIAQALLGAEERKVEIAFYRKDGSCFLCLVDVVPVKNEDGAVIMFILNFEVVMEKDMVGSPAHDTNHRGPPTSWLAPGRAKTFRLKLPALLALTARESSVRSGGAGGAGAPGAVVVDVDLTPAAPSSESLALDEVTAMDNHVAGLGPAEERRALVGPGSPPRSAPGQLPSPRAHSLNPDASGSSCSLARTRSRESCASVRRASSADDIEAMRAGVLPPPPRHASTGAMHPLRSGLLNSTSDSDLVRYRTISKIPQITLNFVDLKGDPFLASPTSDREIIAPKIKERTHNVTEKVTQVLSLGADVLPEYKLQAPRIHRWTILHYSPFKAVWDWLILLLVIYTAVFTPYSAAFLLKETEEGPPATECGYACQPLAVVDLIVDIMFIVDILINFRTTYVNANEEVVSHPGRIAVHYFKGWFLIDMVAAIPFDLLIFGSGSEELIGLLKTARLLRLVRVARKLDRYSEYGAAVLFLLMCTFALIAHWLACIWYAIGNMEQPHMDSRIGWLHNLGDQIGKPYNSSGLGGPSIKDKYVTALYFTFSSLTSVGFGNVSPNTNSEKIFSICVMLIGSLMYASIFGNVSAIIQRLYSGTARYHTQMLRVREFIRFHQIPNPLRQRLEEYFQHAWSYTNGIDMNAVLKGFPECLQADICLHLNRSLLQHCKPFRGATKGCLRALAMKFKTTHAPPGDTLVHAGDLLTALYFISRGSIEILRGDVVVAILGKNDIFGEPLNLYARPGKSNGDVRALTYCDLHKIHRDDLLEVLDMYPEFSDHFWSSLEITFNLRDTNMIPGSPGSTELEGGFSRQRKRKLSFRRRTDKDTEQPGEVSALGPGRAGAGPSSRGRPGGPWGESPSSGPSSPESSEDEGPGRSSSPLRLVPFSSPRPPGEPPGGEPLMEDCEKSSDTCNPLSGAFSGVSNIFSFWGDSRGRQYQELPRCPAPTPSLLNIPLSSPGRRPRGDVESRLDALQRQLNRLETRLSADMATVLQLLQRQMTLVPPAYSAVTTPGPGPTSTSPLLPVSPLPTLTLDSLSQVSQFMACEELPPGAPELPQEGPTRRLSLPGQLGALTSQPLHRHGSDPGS
row,SMILES,"hERG current change (%, negative = inhibition) at 10uM [%]"
1,CC(=O)c1ccc(S(=O)(=O)Nc2ccc(-n3cnnn3)cc2)cc1,-6.16
2,O=C(O)CCCc1nc2ccccc2s1,14.3
3,NS(=O)(=O)c1cc2c(cc1Cl)NC=NS2(=O)=O,2.86
4,COc1ccc2c(c1)c(=O)oc1cc(OC(C(=O)O)c3ccccc3)ccc12 (stereo not drawn),23.3
5,O=C(Cn1c2[n+](c3ccc(C(F)(F)F)cc31)CCCCC2)c1cccc([N+](=O)[O-])c1.[Br-],6.57
6,C[C@@]12CC(=O)NC1N(C(=O)c1ccccc1)C(c1ccccc1OC(=O)c1ccccc1)C2 (stereo partly drawn),3.16
7,CN1C(=O)/C(=C\c2ccccc2F)Sc2ccc(C(=O)NC3CCN(Cc4ccccc4)CC3)cc21,-24.4
8,CCOC(=O)c1sc(NC(=O)CSc2n[nH]c(CC)n2)nc1C,4.82
9,CCN(CC)CCCOC(=O)c1ccc(OC)cc1O.Cl,-40.9
10,COc1ccc2cc(Br)ccc2c1CC(=O)N1CCCC1,-3.41
11,CC(=O)N1N=C(c2ccccc2OC(=O)/C=C/c2ccccc2)CC1c1ccccc1 (stereo not drawn),5.46
12,CN1CCN(c2ccc(NC(=O)COc3ccc4ccccc4c3)cc2)CC1,-17.3
13,COc1cccc(-c2nn3c(-c4ccccn4)nnc3s2)c1,-28
14,CN(CC(=O)Nc1ccccc1Cl)C(=O)COC(=O)c1ccc(Cl)nc1,4.99
15,CC1CCCCC1NC(=S)NC(=O)c1cccs1 (stereo not drawn),11.1
16,COc1ccc(S(=O)(=O)N2CCSC2)cc1C,-9.56
17,Cn1c(SCC(=O)NCc2ccccc2)nc2ccccc21,12.4
18,O=[N+]([O-])c1ccc(/C=N/Nc2ncc(Br)cn2)cc1,13.1
19,CN(C)S(=O)(=O)c1ccc(N2CCCC2)c(C(=O)Nc2ccc(N3CCOCC3)cc2)c1,-7.91
20,O=C(CCC1CCCC1)N1CCC(N2CCCCCC2)CC1.O=C(O)C(=O)O,-29.9
21,O=C(CCCN1C(=O)CCC1=O)Nc1ccc2c(c1)OCO2,12.3
22,CCOC(=O)N1CCC(Nc2c(NCCCN(CC)CC)c(=O)c2=O)CC1,10.2
23,CC1CCC(C(=O)NC(C(=O)N2CCN(c3ccccn3)CC2)C(C)C)CC1 (stereo not drawn),0.678

row,SMILES,"hERG current change (%, negative = inhibition) at 10uM [%]"
1,Nc1nc2c(Cl)ccc(Cl)c2s1,10.7
2,Cn1nnc(NC(=O)CSc2ncn[nH]2)n1,7.02
3,O=C(NCc1nnc(SCC(=O)N2CCCCC2)o1)c1c(F)cccc1F,14.5
4,COc1ccc(S(=O)(=O)CCC(=O)NC2CCCCC2)cc1,14.3
5,O=C(NC12CC3CC(CC(C3)C1)C2)N1CCN(C(=O)c2ccco2)CC1,9.56
6,CCCCn1c(O)c(N=Nc2ccccc2O)c2ccccc21,7.16
7,C#CCSc1nc(-c2ccccc2)cc(C(F)(F)F)c1C#N,7.12
8,COc1ccc(/C=C/C(=O)NC(=S)Nc2ccc(S(N)(=O)=O)cc2)cc1,3.93
9,CCCCOc1ccc(C(=O)NCC(=O)NC2CCCCC2)cc1,15.5
10,CC1CN(/C=C/C=O)C(C)CC1OC(=O)c1ccccc1 (stereo not drawn),4.7
11,Cc1ccc(O)c(NC(=O)CSc2n[nH]c(-c3ccccc3)n2)c1,-27.6
12,COc1ccccc1-n1cnc(N)c1C(=O)c1ccccc1,-9.25
13,COc1cccc(NC(=O)c2ccccc2-c2nc(-c3ccc(Cl)cc3)no2)c1,-5.16
14,O=C(NCCCN1CCOCC1)c1ccc2c(=O)n(Cc3cccc(Br)c3)c(=S)[nH]c2c1,13.1
15,CCOC(=O)c1ccc(NC(=O)CCc2nnc3ccc(N4CCCC4)nn23)cc1,5.84
16,CCNC(=O)CC1C(=O)N(C)C(=S)N1NC(=O)c1ccc(Cl)cc1 (stereo not drawn),-6.31
17,O=C(CSc1nc(C(F)(F)F)cc(=O)[nH]1)NCC1CCCO1 (stereo not drawn),17.1
18,COc1ccc(CCN2CNc3c(c(=O)n(C)c(=O)n3C)C2)cc1,-17.5
19,CCC(=O)Nc1nnc(SCC(=O)NCC2CCCO2)s1 (stereo not drawn),-2.9
20,COc1ccc(CCn2c(-c3ccco3)nc3ccccc3c2=O)cc1OC,-47.4
21,O=c1c2ccccc2nc2sc3ccccc3n12,9.94
22,CC1CCN(C(C(=O)NC2CCCCC2)c2cc3c(cc2[N+](=O)[O-])OCO3)CC1 (stereo not drawn),-32.3
23,CC1CCCCN1C(=O)CCC(=O)Nc1nnc(C2CCCCC2)s1 (stereo not drawn),-3.14

row,SMILES,"hERG current change (%, negative = inhibition) at 10uM [%]"
1,CC(C)Cc1cc(C(=O)N(C)C2CCCN(Cc3ccccc3F)C2)n(C)n1 (stereo not drawn),1.93
2,COc1cc(OC)cc(C(=O)N2CCN(C3CCCCC3)CC2)c1.O=C(O)C(=O)O,-23.4
3,O=C(CSC1=Nc2ccccc2C2=NC(CC(=O)NCc3ccco3)C(=O)N12)NCc1ccco1 (stereo not drawn),7.61
4,O=C(NCC1COc2ccccc2O1)c1ccc(NC(=O)C2CCCO2)cc1 (stereo not drawn),-20.1
5,COc1cc(C(=O)Nc2ccc(Cl)c([N+](=O)[O-])c2)cc(OC)c1OC,13.9
6,CCOC(=O)C1CCCN(Cc2ccccc2F)C1 (stereo not drawn),-6.84
7,O=C(O)CN=C1CC(c2ccccc2)CC(=O)/C1=C(/O)CCCN1C(=O)c2ccccc2C1=O (stereo not drawn),1.09
8,Fc1cc(Cl)ccc1NC(=S)NCCN1CCOCC1,13.1
9,O=c1[nH]c(/C=C/c2cccc(Br)c2)nc2ccccc12,11.8
10,CC1(C)Cc2c(c(-c3ccccc3Cl)[nH]c(=O)c2C#N)CO1,14.8
11,CCOc1ccc(S(=O)(=O)N(C)c2ccc(OCC(=O)OCc3c(C)noc3C)cc2)cc1,-4.37
12,COc1ccc(C(CC(=O)NC(C)c2ccc(-c3ccccc3)cc2)NC(C)=O)cc1 (stereo not drawn),-18.5
13,N#C/C(=C/c1ccc(N2CCOCC2)o1)c1ccc(Br)cc1,21
14,C=CCn1c(CNC(=O)c2ccco2)nnc1SCC(=O)N1c2ccccc2Sc2ccccc21,-16.4
15,O=C1CC(N2CCC(Cc3ccccc3)CC2)C(=O)N1CCc1ccccc1 (stereo not drawn),11.6
16,COc1ccccc1N1CCN(C(=O)c2ccccc2Oc2ccccc2)CC1,-25.7
17,CCOc1cc(/C=C2/NC(=O)N(CC(=O)Nc3cccc(C)c3)C2=O)ccc1OC,1
18,CCOC(=O)Cc1c(C)nc2c(C#N)c[nH]n2c1=O,1.38
19,FC(F)Oc1ccc(NC(=S)N2CCc3ccccc32)cc1,5.86
20,CCC(C)[C@H](NC(=O)c1cn(CC)c2cc3c(cc2c1=O)OCO3)C(=O)NCCCn1ccnc1 (stereo partly drawn),15.4
21,NC(=O)c1ccccc1NC(=O)CN1CCCCCC1,11.1
22,Cc1nnc2ccc(-c3cccc(NC(=O)c4ccc(Br)o4)c3)nn12,-75.8
23,Cl.N[C@@H](CO)c1nnc([C@H](CC(=O)O)NC(=O)C2CCNCC2)o1,16.7

row,SMILES,"hERG current change (%, negative = inhibition) at 10uM [%]"
1,CC1CCN(C(=O)CSc2nc3ccccc3s2)CC1,-8.39
2,Cc1nc(-c2ccc(S(=O)(=O)Nc3ccc(Br)cc3F)cc2)co1,11.6
3,COc1ccc(C(C)=O)cc1CSc1nncn1C,8.54
4,COCCNC(=O)c1cc2cc3ccc(OC)cc3nc2o1,12.8
5,COC(=O)c1c(C)[nH]c(C=O)c1-c1ccccc1,10.3
6,O=C(O)CCCn1cc(NC(=O)c2ccco2)cn1,26.7
7,Nc1cccc(C(=O)OCC(=O)NC2CCCc3ccccc32)c1 (stereo not drawn),17.1
8,COc1ccccc1NC(=O)Cc1nnc(SCC(=O)NC2CCCCC2C)n1C (stereo not drawn),18.5
9,O=C(NCC1CCN(Cc2ccc(F)cc2)CC1)C1CCCN(c2ncnc3c2nc2n3CCCCC2)C1 (stereo not drawn),-39.6
10,CCCC(C)NC(C)C(=O)NC1CCCC1 (stereo not drawn),17.3
11,O=C(c1sc2cc([N+](=O)[O-])ccc2c1Cl)N1CCCCC1,-27.3
12,Brc1cc2c(cc1/C=N/Nc1nc(N3CCCC3)nc(N3CCOCC3)n1)OCO2,-51.3
13,COc1ccc(O)c(C(=O)c2cnc3c(c2)c(C)nn3CCO)c1,-1.94
14,COc1ccc(CCNS(=O)(=O)c2ccc(S(=O)(=O)N3CCCC3)cc2)cc1OC,-6.61
15,CCOc1ccc(NC(=O)c2ccc3[nH]c(=O)c(=O)[nH]c3c2)cc1,16.8
16,O=C(/C=C/c1ccc(OCCCF)cc1)NCc1ccc(Cl)cc1,10.5
17,CSc1c(C#N)c(N)nc2sc(C(=O)c3ccccc3)c(N)c12,7.35
18,CC(C)(C)C(=O)Nc1nnc(CCc2ccccc2)s1,-13.5
19,Nc1nnc(SCC(=O)Nc2cc(F)ccc2F)s1,7.81
20,N#CCCn1cc(/C=N/NC(=O)c2ccncc2)c(-c2ccc(F)cc2)n1,5.2
21,CCOc1ccc(C2=Nn3c(nnc3-c3ccco3)SC2)cc1,-10.7
